Source: the supplement of paper PMC3334620
In all, about 33,000 sequences were measured (“E-score (-0.5 to 0.5)”: median about -0.011, highest 2% from about 0.28 on). This is one part of the list.

Each sequence was assayed against T1, Gcr1 (UniProt P07261) (assay: PBM E-score (8-mer binding enrichment) (E-score (-0.5 to 0.5)); higher = stronger / more preferred TF binding; most listed sequences are background and not binding sites). Conditions: protein concentration: 100 nM; construct: GST-full length.
T1 sequence: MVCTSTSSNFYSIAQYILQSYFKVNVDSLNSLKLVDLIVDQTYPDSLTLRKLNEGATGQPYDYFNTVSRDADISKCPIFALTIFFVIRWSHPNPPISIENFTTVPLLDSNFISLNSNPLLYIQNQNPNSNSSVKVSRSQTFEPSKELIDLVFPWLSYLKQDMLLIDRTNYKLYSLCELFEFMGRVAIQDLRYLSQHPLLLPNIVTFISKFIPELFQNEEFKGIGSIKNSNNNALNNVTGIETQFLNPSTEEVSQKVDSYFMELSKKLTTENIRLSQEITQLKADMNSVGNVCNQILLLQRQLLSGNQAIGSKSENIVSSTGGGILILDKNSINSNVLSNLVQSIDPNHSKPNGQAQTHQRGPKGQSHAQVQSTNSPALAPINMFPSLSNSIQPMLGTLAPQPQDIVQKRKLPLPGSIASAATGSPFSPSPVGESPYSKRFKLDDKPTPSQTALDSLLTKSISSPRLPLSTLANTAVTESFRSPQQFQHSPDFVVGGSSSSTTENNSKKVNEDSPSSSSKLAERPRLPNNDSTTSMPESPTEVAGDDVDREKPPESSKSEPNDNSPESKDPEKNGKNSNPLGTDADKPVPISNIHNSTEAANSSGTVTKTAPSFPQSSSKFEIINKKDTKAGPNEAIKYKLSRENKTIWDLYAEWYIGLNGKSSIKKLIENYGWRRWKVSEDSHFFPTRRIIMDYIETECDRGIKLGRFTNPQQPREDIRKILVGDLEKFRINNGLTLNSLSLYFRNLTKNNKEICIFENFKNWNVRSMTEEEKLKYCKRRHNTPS
In short: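 Masliner-normalised scans of fluorescent anti-GST signal were the basis for scoring. That signal came from GST-tagged yeast transcription factors applied at about 100-200 nM to double-stranded universal all-10-mer Agilent arrays on fresh or once-stripped slides. Each ungapped eight-base word, pooled with its reverse complement, received an E-score from the Universal PBM Analysis Suite.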

Row | Sequence | PBM E-score
1 | AGTGCGTC | -0.11
2 | CGCCCACA | 0.263
3 | ACAGGTGG | 0.104
4 | ATAAGCCA | 0.101
5 | ATAGGGCG | 0.0875
6 | AGCGTTCG | -0.204
7 | AGTATAGC | 0.0932
8 | GATAATCC | -0.153
9 | AGAGCTGC | 0.0162
10 | CGTAAGAA | -0.113
11 | CTATTGAC | -0.0709
12 | ATGCTACA | 0.123
13 | CCTGCACG | -0.0652
14 | AAGGTAGC | -0.0251
15 | GACAGACC | -0.157
16 | CAATTCCG | 0.0519
17 | AACAGACA | 0.0187
18 | AACAGCAG | 0.184
19 | AGATGCAA | -0.0275
20 | CACATGTC | -0.113
21 | ATTGTCGA | -0.0307
22 | ACATAAGA | 0.171

Row | Sequence | PBM E-score
23 | AATGCAGG | -0.0215
24 | TGATTCCA | 0.0933
25 | ATGCGCTC | 0.0347
26 | ACACCTTA | 0.0539
27 | AGATTCTC | 0.105
28 | CTGATCAG | -0.307
29 | AACAATAG | 0.0566
30 | CGTATCAA | 0.0659
31 | GCACTTGA | -0.0566
32 | ATCACGAC | -0.306
33 | CTGGTTCC | 0.34
34 | GCCGGCGC | 0.0181
35 | CTTTTTTC | 0.238
36 | CCGATGAA | 0.0458
37 | TAGCCCGA | 0.131
38 | AGTGTACC | -0.334
39 | AGGTTGGC | -0.111
40 | GTGGCACA | -0.0489
41 | ATGCGCCG | -0.196
42 | CAGGAGCC | 0.242
43 | AGTGCGCA | 0.0737
44 | ACTACGAT | -0.123

Row | Sequence | PBM E-score
45 | ACCAGAGT | 0.0273
46 | TCTTCTCA | -0.0323
47 | CGCGGGAG | -0.187
48 | ATTAAAAC | 0.113
49 | GCGCCAAC | 0.22
50 | CACTTATG | 0.0506
51 | GACCCAGA | -0.0613
52 | CCCGAAGC | 0.0299
53 | TACTGCCA | -0.108
54 | AGAGTCCT | 0.0857
55 | GATCCTGC | 0.252
56 | ATTACACA | 0.0576
57 | GAGTTCAA | -0.246
58 | CCACATGC | -0.205
59 | GGATGAGA | -0.033
60 | CGTGGTGC | -0.0202
61 | ATTGGTGA | 0.121
62 | ACCGCGAT | -0.16
63 | AGGCGATC | -0.0743
64 | AAGATCCC | 0.125
65 | CATGGTGC | 0.0809
66 | GTCATTTA | -0.172

Row | Sequence | PBM E-score
67 | AGCCTCAG | -0.0495
68 | CCGAGCGG | -0.224
69 | AGGAATCG | 0.294
70 | GGGCGGCA | -0.0294
71 | CTGAATCC | 0.115
72 | ACTTAGGG | 0.147
73 | CGGTTTGC | -0.089
74 | AAAGATTG | -0.0542
75 | ATTCTGAA | 0.136
76 | CGGTTTGA | -0.249
77 | ATCACACG | 0.0211
78 | CACCGCGC | -0.0861
79 | AAGTTTAG | 0.234
80 | AGGGTTTG | -0.0293
81 | TAAATAGA | 0.085
82 | AGCGACTG | -0.0906
83 | ACACAGCA | 0.202
84 | AAGACTGC | -0.191
85 | GCGGCCGA | 0.0208
86 | CATCGTCC | -0.0955
